# Data published in the supplement of paper PMC8728848.
# The list shows a part of the results.
# B1: DC-ASGPR Long (Homo sapiens) (protein)
# chain: MTRTYENFQYLENKVKVQGFKNGPLPLQSLLQRLRSGPCHLLLSLGLGLLLLVIICVVGFQNSKFQRDLVTLRTDFSNFTSNTVAEIQALTSQGSSLEETIASLKAEVEGFKQERQAGVSELQEHTTQKAHLGHCPHCPSVCVPVHSEMLLRVQQLVQDLKKLTCQVATLNNNASTEGTCCPVNWVEHQDSCYWFSHSGMSWAEAEKYCQLKNAHLVVINSREEQNFVQKYLGSAYTWMGLSDPEGAWKWVDGTDYATGFQNWKPGQPDDWQGHGLGGGEDCAHFHPDGGWNDDVCQRPYHWVCEAGLGQTSQESH
# Assays:
# Experiment in all cases: glycan array binding signal (z-score within array); higher = stronger binding
# Settings in all cases: glycan notation: IUPAC condensed, linker removed
# [1] = target: Fuc(a1-2)Gal(b1-4)GlcNAc(b1-3)Gal(b1-4)GlcNAc(b1-2)Man(a1-3)[Fuc(a1-2)Gal(b1-4)GlcNAc(b1-3)Gal(b1-4)GlcNAc(b1-2)Man(a1-6)]Man(b1-4)GlcNAc(b1-4)GlcNAc
# In short: (§1)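 From the Consortium for Functional Glycomics database, 3228 arrays were curated, keeping only those whose protein sequence was available. Binding is given as a within-array Z-score averaged across arrays sharing a protein sequence and across linkers. Negative Z-scores can be read as non-binding.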
# [2] = target: Fuc(a1-2)Gal(b1-4)GlcNAc(b1-3)Gal(b1-4)GlcNAc(b1-3)Gal(b1-4)GlcNAc
# In short: as §1
# [3] = target: Fuc(a1-2)Gal(b1-4)GlcNAc(b1-3)GalNAc
# In short: as §1
# [4] = target: Fuc(a1-2)Gal(b1-4)GlcNAc(b1-3)[Fuc(a1-2)Gal(b1-4)GlcNAc(b1-6)]GalNAc
# In short: as §1
# [5] = target: Fuc(a1-2)Gal(b1-4)GlcNAc(b1-3)[Fuc(a1-3)[Gal(b1-4)]GlcNAc(b1-6)]Gal(b1-4)Glc
# In short: as §1
# [6] = target: Fuc(a1-2)Gal(b1-4)GlcNAc(b1-6)GalNAc
# In short: as §1
# [7] = target: Fuc(a1-2)Gal(b1-4)GlcNAc6S
# In short: as §1
# [8] = target: Fuc(a1-2)Gal(b1-4)[Fuc(a1-3)]GlcNAc
# In short: as §1
# [9] = target: Fuc(a1-2)Gal(b1-4)[Fuc(a1-3)]GlcNAc(b1-2)Man(a1-3)[Fuc(a1-2)Gal(b1-4)[Fuc(a1-3)]GlcNAc(b1-2)Man(a1-6)]Man(b1-4)GlcNAc(b1-4)[Fuc(a1-6)]GlcNAc
# In short: as §1
# [10] = target: Fuc(a1-2)Gal(b1-4)[Fuc(a1-3)]GlcNAc(b1-2)[Fuc(a1-2)Gal(b1-4)[Fuc(a1-3)]GlcNAc(b1-4)]Man(a1-3)[Fuc(a1-2)Gal(b1-4)[Fuc(a1-3)]GlcNAc(b1-2)Man(a1-6)]Man(b1-4)GlcNAc(b1-4)GlcNAc
# In short: as §1
# [11] = target: Fuc(a1-2)Gal(b1-4)[Fuc(a1-3)]GlcNAc(b1-3)Gal(b1-4)[Fuc(a1-3)]GlcNAc
# In short: as §1
# [12] = target: Fuc(a1-2)Gal(b1-4)[Fuc(a1-3)]GlcNAc(b1-3)Gal(b1-4)[Fuc(a1-3)]GlcNAc(b1-3)Gal(b1-4)[Fuc(a1-3)]GlcNAc
# In short: as §1
# [13] = target: Fuc(a1-2)Gal(b1-4)[Fuc(a1-3)]GlcNAc(b1-3)GalNAc
# In short: as §1
# [14] = target: Fuc(a1-2)Gal(b1-4)[Fuc(a1-3)]GlcNAc(b1-3)[Neu5Ac(a2-6)Gal(b1-4)GlcNAc(b1-6)]Gal(b1-4)Glc
# In short: as §1
# [15] = target: Fuc(a1-2)Gal3S(b1-4)GlcNAc
# In short: as §1
# [16] = target: Fuc(a1-2)Gal6S(b1-3)GlcNAc
# In short: as §1
# [17] = target: Fuc(a1-2)Gal6S(b1-3)GlcNAc6S
# In short: as §1
# Fuc(a1-2)Gal6S(b1-4)Glc = target: Fuc(a1-2)Gal6S(b1-4)Glc
# In short: as §1
# [18] = target: Fuc(a1-2)Gal6S(b1-4)Glc6S
# In short: as §1
# Fuc(a1-2)[Gal(a1-3)]Gal = target: Fuc(a1-2)[Gal(a1-3)]Gal
# In short: as §1
# [19] = target: Fuc(a1-2)[Gal(a1-3)]Gal(b1-3)GalNAc
# In short: as §1
# [20] = target: Fuc(a1-2)[Gal(a1-3)]Gal(b1-3)GalNAc(b1-3)Gal(a1-4)Gal(b1-4)Glc
# In short: as §1
# [21] = target: Fuc(a1-2)[Gal(a1-3)]Gal(b1-3)GlcNAc
# In short: as §1
# [22] = target: Fuc(a1-2)[Gal(a1-3)]Gal(b1-3)GlcNAc(b1-2)Man(a1-3)[Fuc(a1-2)[Gal(a1-3)]Gal(b1-3)GlcNAc(b1-2)Man(a1-6)]Man(b1-4)GlcNAc(b1-4)GlcNAc
# In short: as §1
# [23] = target: Fuc(a1-2)[Gal(a1-3)]Gal(b1-3)GlcNAc(b1-2)Man(a1-3)[Fuc(a1-2)[Gal(a1-3)]Gal(b1-3)GlcNAc(b1-2)Man(a1-6)]Man(b1-4)GlcNAc(b1-4)[Fuc(a1-6)]GlcNAc
# In short: as §1
# [24] = target: Fuc(a1-2)[Gal(a1-3)]Gal(b1-3)GlcNAc(b1-3)GalNAc
# In short: as §1
# [25] = target: Fuc(a1-2)[Gal(a1-3)]Gal(b1-3)GlcNAc(b1-6)GalNAc
# In short: as §1
# [26] = target: Fuc(a1-2)[Gal(a1-3)]Gal(b1-4)Glc
# In short: as §1
# [27] = target: Fuc(a1-2)[Gal(a1-3)]Gal(b1-4)GlcNAc
# In short: as §1
# [28] = target: Fuc(a1-2)[Gal(a1-3)]Gal(b1-4)GlcNAc(b1-2)Man
# In short: as §1
# [29] = target: Fuc(a1-2)[Gal(a1-3)]Gal(b1-4)GlcNAc(b1-2)Man(a1-3)[Fuc(a1-2)[Gal(a1-3)]Gal(b1-4)GlcNAc(b1-2)Man(a1-6)]Man(b1-4)GlcNAc(b1-4)GlcNAc
# In short: as §1
# [30] = target: Fuc(a1-2)[Gal(a1-3)]Gal(b1-4)GlcNAc(b1-2)Man(a1-3)[Fuc(a1-2)[Gal(a1-3)]Gal(b1-4)GlcNAc(b1-2)Man(a1-6)]Man(b1-4)GlcNAc(b1-4)[Fuc(a1-6)]GlcNAc
# In short: as §1
# [31] = target: Fuc(a1-2)[Gal(a1-3)]Gal(b1-4)GlcNAc(b1-3)GalNAc
# In short: as §1
# [32] = target: Fuc(a1-2)[Gal(a1-3)]Gal(b1-4)GlcNAc(b1-3)[Fuc(a1-2)[Gal(a1-3)]Gal(b1-4)GlcNAc(b1-6)]GalNAc
# In short: as §1
# [33] = target: Fuc(a1-2)[Gal(a1-3)]Gal(b1-4)GlcNAc(b1-6)GalNAc
# In short: as §1
# [34] = target: Fuc(a1-2)[Gal(a1-3)]Gal(b1-4)[Fuc(a1-3)]Glc
# In short: as §1
# [35] = target: Fuc(a1-2)[Gal(a1-3)]Gal(b1-4)[Fuc(a1-3)]GlcNAc
# In short: as §1
binder,measurement,setting,value
B1,glycan array binding signal (z-score),[1],0.075
same,glycan array binding signal (z-score),[2],-0.571
same,glycan array binding signal (z-score),[3],-0.265
same,glycan array binding signal (z-score),[4],-0.108
same,glycan array binding signal (z-score),[5],-0.219
same,glycan array binding signal (z-score),[6],1.92
same,glycan array binding signal (z-score),[7],-0.271
same,glycan array binding signal (z-score),[8],-0.176
same,glycan array binding signal (z-score),[9],-0.421
same,glycan array binding signal (z-score),[10],-0.111
same,glycan array binding signal (z-score),[11],-0.21
same,glycan array binding signal (z-score),[12],-0.405
same,glycan array binding signal (z-score),[13],-0.329
same,glycan array binding signal (z-score),[14],-0.447
same,glycan array binding signal (z-score),[15],0.826
same,glycan array binding signal (z-score),[16],-0.354
same,glycan array binding signal (z-score),[17],0.044
same,glycan array binding signal (z-score),Fuc(a1-2)Gal6S(b1-4)Glc,-0.637
same,glycan array binding signal (z-score),[18],0.241
same,glycan array binding signal (z-score),Fuc(a1-2)[Gal(a1-3)]Gal,-0.434
same,glycan array binding signal (z-score),[19],-0.207
same,glycan array binding signal (z-score),[20],-0.254
same,glycan array binding signal (z-score),[21],0.022
same,glycan array binding signal (z-score),[22],-0.007
same,glycan array binding signal (z-score),[23],-0.379
same,glycan array binding signal (z-score),[24],0.428
same,glycan array binding signal (z-score),[25],2.09
same,glycan array binding signal (z-score),[26],-0.379
same,glycan array binding signal (z-score),[27],-0.263
same,glycan array binding signal (z-score),[28],-0.043
same,glycan array binding signal (z-score),[29],0.114
same,glycan array binding signal (z-score),[30],0.061
same,glycan array binding signal (z-score),[31],-0.382
same,glycan array binding signal (z-score),[32],-0.397
same,glycan array binding signal (z-score),[33],-0.147
same,glycan array binding signal (z-score),[34],-0.153
same,glycan array binding signal (z-score),[35],-0.212
